Experimental data taken from PubChem BioAssay AID504333 (National Center for Advancing Translational Sciences (NCATS), 2011).
In all, about 360,000 compounds went through this assay and about 16,000 (4.4%) were called active. The inconclusive results got no clear call from the source; some entries with a clear call stand among them for comparison. Calls come from the whole dose curve; as a rule, active = well fitted inhibition curve with a large enough effect; inconclusive = small, poorly fitted or top-dose-only effect; inactive = no such curve, though single readings can be large or run the other way. A potency beside an inconclusive call is a rough fit, not a confirmed value.

The compounds below were run against Bromodomain adjacent to zinc finger domain protein 2B (Homo sapiens) (UniProt Q9UIF8) (assay: qHTS Assay for Inhibitors of BAZ2B). Conditions: AlphaScreen BAZ2B-H3K14Ac peptide displacement; activity change, negative = inhibition: at 114 µM (top of the series).
Method in brief: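 AlphaScreen displacement: compounds (up to 110uM) incubated 30 min at room temperature with a preformed 50 nM BAZ2B/50 nM biotinylated H3K14Ac peptide complex in PBS pH 7.4 with Tween-20. Donor and acceptor beads at 10 ug/mL final added, 20 min light-protected before reading.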
% is set by controls: 0 for no effect and ±100 for the full control effect; potency is the fitted concentration of half-maximal effect; tags give direction and shape of the fitted curve.
Note: nearly all actives have a fitted effect of over 60% in size.

UniProt Q9UIF8, sequence (Q9UIF8 whole entry, looked up, the tested form may be a part): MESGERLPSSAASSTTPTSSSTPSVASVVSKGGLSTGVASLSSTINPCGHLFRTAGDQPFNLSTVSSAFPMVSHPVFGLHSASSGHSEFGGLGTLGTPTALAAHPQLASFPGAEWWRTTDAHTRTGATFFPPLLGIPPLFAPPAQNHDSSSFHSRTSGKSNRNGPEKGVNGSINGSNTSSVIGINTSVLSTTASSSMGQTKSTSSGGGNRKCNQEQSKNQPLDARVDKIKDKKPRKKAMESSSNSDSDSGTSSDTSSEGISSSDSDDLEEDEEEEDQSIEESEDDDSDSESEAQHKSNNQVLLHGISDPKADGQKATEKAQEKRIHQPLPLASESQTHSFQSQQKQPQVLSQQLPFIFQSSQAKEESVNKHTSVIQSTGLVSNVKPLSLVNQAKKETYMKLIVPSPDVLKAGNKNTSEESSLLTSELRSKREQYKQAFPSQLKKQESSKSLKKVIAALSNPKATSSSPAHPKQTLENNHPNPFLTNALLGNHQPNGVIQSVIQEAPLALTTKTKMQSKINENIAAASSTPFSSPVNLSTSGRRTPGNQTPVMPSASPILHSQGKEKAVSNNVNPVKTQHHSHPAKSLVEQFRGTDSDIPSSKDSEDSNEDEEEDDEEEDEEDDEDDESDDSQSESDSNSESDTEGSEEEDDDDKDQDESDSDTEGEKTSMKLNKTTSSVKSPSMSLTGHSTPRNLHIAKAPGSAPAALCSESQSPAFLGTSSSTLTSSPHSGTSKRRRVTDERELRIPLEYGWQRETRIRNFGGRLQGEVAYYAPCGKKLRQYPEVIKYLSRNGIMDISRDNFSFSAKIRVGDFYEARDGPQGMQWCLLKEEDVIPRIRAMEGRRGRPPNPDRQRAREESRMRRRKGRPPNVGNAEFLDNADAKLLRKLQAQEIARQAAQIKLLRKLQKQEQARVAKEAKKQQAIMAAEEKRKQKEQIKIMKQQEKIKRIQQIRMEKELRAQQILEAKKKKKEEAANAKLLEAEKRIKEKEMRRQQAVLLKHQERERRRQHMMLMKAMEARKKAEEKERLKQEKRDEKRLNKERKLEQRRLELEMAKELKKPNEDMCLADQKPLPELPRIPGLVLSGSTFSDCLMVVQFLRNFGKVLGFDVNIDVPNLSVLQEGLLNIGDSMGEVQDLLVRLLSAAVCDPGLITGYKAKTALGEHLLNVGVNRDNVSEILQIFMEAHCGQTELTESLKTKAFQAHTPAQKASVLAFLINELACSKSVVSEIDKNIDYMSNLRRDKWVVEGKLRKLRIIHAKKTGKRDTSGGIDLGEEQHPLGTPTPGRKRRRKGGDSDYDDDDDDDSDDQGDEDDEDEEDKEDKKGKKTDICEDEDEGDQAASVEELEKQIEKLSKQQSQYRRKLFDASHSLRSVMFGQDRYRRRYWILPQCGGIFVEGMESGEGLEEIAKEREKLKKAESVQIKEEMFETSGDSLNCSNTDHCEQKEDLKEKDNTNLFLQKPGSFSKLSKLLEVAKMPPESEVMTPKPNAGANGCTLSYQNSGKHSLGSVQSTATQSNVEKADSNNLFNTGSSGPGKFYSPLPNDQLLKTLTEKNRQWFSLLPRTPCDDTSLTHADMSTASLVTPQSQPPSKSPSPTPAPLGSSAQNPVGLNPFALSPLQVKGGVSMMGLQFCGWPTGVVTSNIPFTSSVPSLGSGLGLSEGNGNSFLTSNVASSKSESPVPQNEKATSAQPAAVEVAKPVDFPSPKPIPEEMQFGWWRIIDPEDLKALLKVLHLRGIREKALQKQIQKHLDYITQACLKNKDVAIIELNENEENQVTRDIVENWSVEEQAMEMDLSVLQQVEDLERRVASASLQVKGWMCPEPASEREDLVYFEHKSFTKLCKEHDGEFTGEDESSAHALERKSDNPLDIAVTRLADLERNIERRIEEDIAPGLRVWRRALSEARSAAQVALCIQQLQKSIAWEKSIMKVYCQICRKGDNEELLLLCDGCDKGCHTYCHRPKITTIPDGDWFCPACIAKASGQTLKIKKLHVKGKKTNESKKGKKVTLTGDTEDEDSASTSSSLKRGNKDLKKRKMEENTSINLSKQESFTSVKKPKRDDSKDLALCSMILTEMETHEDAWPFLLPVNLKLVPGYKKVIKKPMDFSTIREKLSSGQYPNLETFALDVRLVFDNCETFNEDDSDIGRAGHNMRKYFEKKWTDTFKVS

Row | SMILES | Potency | activity change, negative = inhibition
1 | C#CCOCCOCCOCCNc1nc(N2CCN(C(=O)[C@H]([C@@H](C)O)n3cc(CCCCN)nn3)CC2)nc(N2CCN(C(=O)[C@H](Cc3ccc(O)cc3)n3cc(CCO)nn3)CC2)n1 | inconclusive: 89.1 µM [inhibitor, single point] | –
2 | CCOc1cc(Br)cc(C(c2c(C(=O)O)[nH]c3ccccc23)c2c(C(=O)O)[nH]c3ccccc23)c1O | – | inactive: -33.4%
3 | O=C(c1ccccc1F)N1CCN(c2ccc([N+](=O)[O-])c3cccnc23)CC1 | inconclusive: 20 µM [inhibitor, full curve] | –
4 | Oc1cccc(/C=N/N2CCN(C3c4ccccc4-c4ccccc43)CC2)c1 | inconclusive: 39.8 µM [inhibitor, partial curve] | –
5 | CCc1c(O)cc(=O)n(-c2ccccc2)c1-c1ccccc1 | active: 56.2 µM | –
6 | Cc1cc(SCC(=O)OCC(=O)NCc2ccc3c(c2)OCO3)c(C)cc1Br | – | inactive: 7.63%
7 | COc1ccc2oc(C(=O)NCc3cc(OC)c(OC)cc3OC)c(C)c2c1 | inconclusive: 44.7 µM [inhibitor, partial curve] | –
8 | O=C(Nc1ccc2c(c1)OCO2)N1CCN(c2ccc(F)cc2)CC1 | inconclusive: 70.8 µM [inhibitor, single point] | –
9 | COc1cc(C2C(C(=O)c3ccc(C)o3)=C(O)C(=O)N2CCCn2ccnc2)cc(OC)c1OC (stereo not given) | inconclusive: 79.4 µM [inhibitor, single point] | –
10 | COc1cc(C)ccc1OCCOCCN(C)Cc1ccccc1 | inconclusive: 89.1 µM [inhibitor, single point] | –
11 | CCN(CCNCC(O)COc1ccccc1C(C)C)c1cccc(C)c1 (stereo not given) | active: 28.2 µM | –
12 | COc1cccc(CN2C(=O)C3(SCC(=O)N3c3cc(C)cc(C)c3)c3ccccc32)c1 (stereo not given) | inconclusive: 89.1 µM [inhibitor, single point] | –
13 | Cc1ccc(CCNC(=O)c2cc3sccc3n2Cc2ccc(Cl)cc2)cc1 | – | inactive: -11%
14 | COc1ccc(NS(=O)(=O)NC(=O)c2c[nH]c3ccccc23)cc1 | inconclusive: 89.1 µM [inhibitor, single point] | –
15 | O=C(Nc1nnc2n1CCS2)c1ccc(Br)o1 | active: 20 µM | –
16 | Cc1noc(C)c1COc1ccccc1C(=O)N(C)CC(=O)Nc1ccc(F)c(F)c1F | – | inactive: 11.9%
17 | COc1ccc2nc(N(Cc3cccnc3)C(=O)c3ccco3)sc2c1 | – | inactive: -8.28%
18 | COc1ccc(-n2cc(C(=O)NCc3ccc(Cl)cc3)c3ccccc3c2=O)cc1 | inconclusive: 89.1 µM [inhibitor, single point] | –
19 | O=S(=O)(c1cc(Cl)ccc1Cl)N1CCCC1 | inconclusive: 7.08 µM [inhibitor, single point] | –
20 | COc1ccc(N2CCN(c3nc4c(C)cccn4c(=O)c3/C=C(\C#N)C(N)=O)CC2)cc1 | active: 35.5 µM | –
21 | COc1ccccc1-c1nnc(SCC(=O)c2c(N)n(C3CC3)c(=O)[nH]c2=O)n1C | – | inactive: 10.8%
22 | Clc1ccc(CN2CCCCCC2)cc1 | inconclusive: 89.1 µM [inhibitor, single point] | –
23 | CCC(C)(C)C(=O)Nc1ccc(OC)cc1[N+](=O)[O-] | inconclusive: 89.1 µM [inhibitor, single point] | –

Row | SMILES | Potency | activity change, negative = inhibition
24 | Cc1nn(CC(=O)NCc2cccc(F)c2)c(=O)c2c(C)n(-c3ccc(Cl)cc3)nc12 | – | inactive: -0.236%
25 | COc1cc(OC)cc(C(=O)Nc2nnc(SCC(=O)NCc3ccco3)s2)c1 | inconclusive: 56.2 µM [inhibitor, partial curve, poor fit] | –
26 | COc1ccc(Cl)cc1S(=O)(=O)n1c([N+](=O)[O-])cnc1C | inconclusive: 89.1 µM [inhibitor, single point] | –
27 | CC(C)(C)c1ccccc1OCC(O)CN1CCN(c2ccccn2)CC1 (stereo not given) | inconclusive: 79.4 µM [inhibitor, single point] | –
28 | C/C(N)=C(/C#N)C(=O)CSc1nc2ccccc2c(=O)n1Cc1ccc(F)cc1 | inconclusive: 56.2 µM [inhibitor, partial curve] | –
29 | O=C(NCCN1CCN(c2ccccc2)CC1)Nc1ccccc1Br | inactive | –
30 | N#C/C(=C/c1ccc(Br)o1)C(N)=O | – | inactive: -3.86%
31 | CNC(=O)CSc1nc2ccccc2c(=O)n1-c1cc(OC)ccc1OC | – | inactive: -4.96%
32 | COc1ccc(CCNS(=O)(=O)c2ccc3c(c2)CCN3C(=O)C2CC2)cc1OC | – | inactive: -6.07%
33 | CNS(=O)(=O)c1cccc(C(=O)NNC(=O)CN(C)S(=O)(=O)c2ccc(Cl)cc2)c1 | inconclusive: 50.1 µM [inhibitor, partial curve, poor fit] | –
34 | O=C(O)c1cc(C2CC2)nn1-c1ccccc1 | inconclusive: 89.1 µM [inhibitor, single point] | –
35 | COc1ccccc1NC(=S)NC1CCC(CC2CCC(NC(=S)Nc3ccccc3OC)CC2)CC1 (stereo not given) | – | inactive: 21.3%
36 | CCCn1c2ccccc2c2cnn(CC(=O)N3CCC(C(=O)OCC)CC3)c(=O)c21 | – | inactive: -1.45%
37 | CC(=O)CC1(O)C(=O)N(Cc2ccccc2)c2ccccc21 (stereo not given) | – | inactive: 4.75%
38 | COC(=O)C1=C(N)Oc2cc(C)n(Cc3ccco3)c(=O)c2C1c1cccc(Cl)c1 (stereo not given) | inconclusive: 89.1 µM [inhibitor, single point] | –
39 | COc1ccc(CNC(=O)CS(=O)(=O)Cc2nc(-c3cccc(OC)c3)oc2C)cc1 | – | inactive: -13.4%
40 | COc1ccc(-n2c(=O)c3c4c(sc3n(Cc3cc(C)ccc3C)c2=O)CN(C(C)=O)CC4)c(OC)c1 | inconclusive: 25.1 µM [inhibitor, full curve] | –
41 | Cc1cc(F)ccc1NCc1cc2c(cc1[N+](=O)[O-])OCO2 | inconclusive: 15.8 µM [inhibitor, full curve] | –
42 | CCC/C(C)=N\Nc1nc2c(c(=O)n(C)c(=O)n2C)n1C | inconclusive: 70.8 µM [inhibitor, single point] | –
43 | N#Cc1nc(/C=C/c2ccc(F)cc2)oc1N1CCN(c2ccccc2)CC1 | inconclusive: 3.16 µM [inhibitor, full curve] | –
44 | O=S(=O)(c1ccccc1)c1nc(Nc2cccc(O)c2)sc1Cl | inconclusive: 39.8 µM [inhibitor, partial curve] | –
45 | CCN1C/C(=C\c2cccc([N+](=O)[O-])c2)C(=O)/C(=C/c2cccc([N+](=O)[O-])c2)C1 | inconclusive: 14.1 µM [inhibitor, partial curve] | –
